These results are taken from US12611438B2, “Antiviral composition comprising a nucleolin-binding peptide” (ANYGEN CO., LTD., priority 2021, dated 2026).

The assay concerns MCF-10A, CCD-18Co. Kind of assay: Bead whole-cell binding assay, normal cell lines. Conditions: peptide on OBOC beads.

As for AVARARRRR (Synthetic construct AGM-332), the “binding to normal human breast cell line MCF-10A” value is “did not bind to a normal human breast cell line (MCF-10A) or weakly bound thereto”.
